Each block holds one binder with its values, some of them ahead of it.
Experiments:
TRAIL-R2-Fc = TRAIL-R2-Fc (human, UniProt O14763); test: ELISA
HER2 ECD = HER2 ECD (human, UniProt P04626); test: ELISA
HER2 (cell surface) = HER2 (cell surface) (human, UniProt P04626); test: FACS, FaDu (HER2 and HER3 positive)
EGFR ECD = EGFR ECD (human, UniProt P00533); test: ELISA

B1: scFv3-43-Fc-scTRAIL, TRAIL part (antibody)
chain: METDTLLLWVLLLWVPGSTGDYKDDDDKGGGGSGTQVQLQQSGPGLVKPSQTLSLTCAISGDSVSSNRAAWNWIRQSPSRGLEWLGRTYYRSKWYNDYAQSLKSRITINPDTPKNQFSLQLNSVTPEDTAVYYCARDGQLGLDALDIWGQGTMVTVSSGGGGSGGGGSGGGGSQAGLTQPPAVSVAPGQTASITCGRDNIGSRSVHWYQQKPGQAPVLVVYDDSDRPAGIPERFSGSNYENTATLTISRVEAGDEADYYCQVWGITSDHVVFGGGTKLTVLAAAGGSGG[no letters for human IgG1 Fc]GGSGGGSSGGGPQRVAAHITGTRGRSNTLSSPNSKNEKALGRKINSWESSRSGHSFLSNLHLRNGELVIHEKGFYYIYSQTYFRFQEEIKENTKNDKQMVQYIYKYTSYPDPILLMKSARNSCWSKDAEYGLYSIYQGGIFELKENDRIFVSVTNEHLIDMDHEASFFGAFLVGGGPQRVAAHITGTRGRSNTLSSPNSKNEKALGRKINSWESSRSGHSFLSNLHLRNGELVIHEKGFYYIYSQTYFRFQEEIKENTKNDKQMVQYIYKYTSYPDPILLMKSARNSCWSKDAEYGLYSIYQGGIFELKENDRIFVSVTNEHLIDMDHEASFFGAFLVGGGPQRVAAHITGTRGRSNTLSSPNSKNEKALGRKINSWESSRSGHSFLSNLHLRNGELVIHEKGFYYIYSQTYFRFQEEIKENTKNDKQMVQYIYKYTSYPDPILLMKSARNSCWSKDAEYGLYSIYQGGIFELKENDRIFVSVTNEHLIDMDHEASFFGAFLVG
EC50 (TRAIL-R2-Fc): 2.84 nM

B5: scDb 2-35x3-43-Fc, HER2 arm (antibody)
chain: METDTLLLWVLLLWVPGSTGQMQLVQSGAEVKKPGESLKISCKGSGYSFTSYWIGWVRQMPGKGLEWMGIIYPGDSDTRYSPSFQGQVTISADKSISTAYLQWSSLKASDTAMYYCARLGRSGSYYNYGMDVWGQGTTVTVSSGGGGSQAGLTQPPAVSVAPGQTASITCGRDNIGSRSVHWYQQKPGQAPVLVVYDDSDRPAGIPERFSGSNYENTATLTISRVEAGDEADYYCQVWGITSDHVVFGGGTKLTVLGGGGSGGRASGGGGSQVQLQQSGPGLVKPSQTLSLTCAISGDSVSSNRAAWNWIRQSPSRGLEWLGRTYYRSKWYNDYAQSLKSRITINPDTPKNQFSLQLNSVTPEDTAVYYCARDGQLGLDALDIWGQGTMVTVSSGGGGSQAVVTQEPSFSVSPGGTVTLTCGLSSGSVSSSYYPSWYQQTSGQPPRTLIYSTDTRSSGVPDRFSGSILGDKAALTITGAQADDESDYYCMLYMGSGISVFGGGTKLAVLAAAGGSGG[no letters for human IgG1 Fc]
EC50 (HER2 ECD): ~1.5 nM

Continued, values first:

EC50 (HER2 ECD): 2.5 nM
EC50 (HER2 (cell surface)): 2.9 nM
B2: scDb 4D5x3-43-Fc, HER2 arm (antibody)
chain: METDTLLLWVLLLWVPGSTG[no letters for about 120 residues]GGGGSQAGLTQPPAVSVAPGQTASITCGRDNIGSRSVHWYQQKPGQAPVLVVYDDSDRPAGIPERFSGSNYENTATLTISRVEAGDEADYYCQVWGITSDHVVFGGGTKLTVLGGGGSGGRASGGGGSGGGGSQVQLQQSGPGLVKPSQTLSLTCAISGDSVSSNRAAWNWIRQSPSRGLEWLGRTYYRSKWYNDYAQSLKSRITINPDTPKNQFSLQLNSVTPEDTAVYYCARDGQLGLDALDIWGQGTMVTVSSGGGGS[no letters for about 100 residues]RAAAGGSGG[no letters for human IgG1 Fc]

EC50 (HER2 ECD): 1.54 nM
B3: scDb4D5x3-43-LL, HER2 arm (antibody)
chain: METDTLLLWVLLLWVPGSTGDAAQPAMA[no letters for about 120 residues]GGGGSQAGLTQPPAVSVAPGQTASITCGRDNIGSRSVHWYQQKPGQAPVLVVYDDSDRPAGIPERFSGSNYENTATLTISRVEAGDEADYYCQVWGITSDHVVFGGGTKLTVLGGGGSGGRASGGGGSGGGGSQVQLQQSGPGLVKPSQTLSLTCAISGDSVSSNRAAWNWIRQSPSRGLEWLGRTYYRSKWYNDYAQSLKSRITINPDTPKNQFSLQLNSVTPEDTAVYYCARDGQLGLDALDIWGQGTMVTVSSGGGGS[no letters for about 120 residues]

EC50 (EGFR ECD): 0.16 nM
B4: scDbhu225x3-43-Fc (GGGGS), EGFR arm (antibody)
chain: METDTLLLWVLLLWVPGSTGEVQLVESGGGLVQPGGSLRLSCAASGFSLTNYGVHWVRQAPGKGLEWLGVIWSGGNTDYNTPFTSRFTISRDNSKNTLYLQMNSLRAEDTAVYYCARALTYYDYEFAYWGQGTTVTVSSGGGGSQAGLTQPPAVSVAPGQTASITCGRDNIGSRSVHWYQQKPGQAPVLVVYDDSDRPAGIPERFSGSNYENTATLTISRVEAGDEADYYCQVWGITSDHVVFGGGTKLTVLGGGGSGGGGSGGGGSQVQLQQSGPGLVKPSQTLSLTCAISGDSVSSNRAAWNWIRQSPSRGLEWLGRTYYRSKWYNDYAQSLKSRITINPDTPKNQFSLQLNSVTPEDTAVYYCARDGQLGLDALDIWGQGTMVTVSSGGGGSDIQLTQSPSFLSASVGDRVTITCRASQSIGTNIHWYQQKPGKAPKLLIKYASESISGVPSRFSGSGSGTEFTLTISSLQPEDFATYYCQQNNNWPTTFGAGTKLEIKRAAAGGSGG[no letters for human IgG1 Fc]
